In the antibiotic and cytotoxicity screens of Wong et al. (2023) one finds cytotoxicity call and growth inhibition call data, which are given here for 27 compounds.

One assay relates to HSkMC. Briefly: cytotoxicity call (relative viability < 0.9). The conditions noted are these: 10 µM.
A further assay deals with HepG2. Briefly: cytotoxicity call (relative viability < 0.9). The conditions noted are these: 10 µM.
For a further assay, the system named is S. aureus RN4220. Briefly: growth inhibition call (relative growth <= 0.2). The note with it: 50 µM.

Molecules are shown by their SMILES. The list shows a part of the results.

`O=C(CCC1=NS(=O)(=O)c2cc(Br)cnc2N1)N1CCOCC1`: the cytotoxicity call in the assay on HSkMC and in the assay with HepG2 was “inactive” in each case. In addition, in the assay on S. aureus RN4220, the growth inhibition call is “inactive”.

As for `C[C@@H]1CN([C@H](C)CO)C(=O)c2cc(NC(=O)NC3CCCCC3)ccc2O[C@H]1CN(C)S(C)(=O)=O`, the cytotoxicity call in the assay on HSkMC and with HepG2 was “inactive” throughout. In the assay on S. aureus RN4220, the growth inhibition call was “inactive”.

Take `C[C@@H]1CN([C@@H](C)CO)C(=O)c2cc(C#Cc3ccccc3F)cnc2O[C@H]1CN(C)C(=O)c1ccc2c(c1)OCO2`: the cytotoxicity call in the assay on HSkMC and with HepG2 was “inactive” each time. Further, the growth inhibition call in the assay with S. aureus RN4220 is “inactive”.

Take `CCS(=O)(=O)N1C[C@]2(CN(C2)S(=O)(=O)c2cn(cn2)C)c2c(n(c3cc(ccc23)OC)C)[C@H]1CO`: the cytotoxicity call in the assay on HSkMC and with HepG2 was “inactive” in each case. Moreover, the growth inhibition call with S. aureus RN4220 was “inactive”.

For the compound `CC(C)(C)OC(=O)CC[C@]12N=C(c3ccc(OCCCO)cc3)O[C@H]1c1ccccc1N(Cc1ccccc1)C2=O`, the cytotoxicity call in the assay with HSkMC and with HepG2 was “inactive” throughout. The growth inhibition call with S. aureus RN4220 is “inactive”.

Consider `O=C(C[C@@H]1CC[C@@H]2[C@H](COC[C@@H](O)CN2S(=O)(=O)c2ccccc2F)O1)NCc1ccccc1Cl`, for which the cytotoxicity call with HSkMC and in the assay with HepG2 was “inactive” in each case. Moreover, the growth inhibition call in the assay on S. aureus RN4220 was “inactive”.

Regarding `C[C@@H]1CN([C@H](C)CO)C(=O)c2cccc(NS(C)(=O)=O)c2O[C@@H]1CN(C)S(=O)(=O)c1ccc(F)cc1`, the cytotoxicity call with HSkMC and in the assay on HepG2 was “inactive” each time. Further, the growth inhibition call in the assay with S. aureus RN4220 is “inactive”.

On to `Cn1nccc1NC(=O)/C=C/C(=O)O`, for which the cytotoxicity call in the assay on HSkMC and in the assay with HepG2 was “inactive” in each case. In the assay with S. aureus RN4220, the growth inhibition call was “inactive”.

Take `C[C@H]1CC=CC[C@H](c2ccc3c(c2)OCO3)NC(=O)[C@H](Cc2ccccc2)N(C)C(=O)c2ccccc2O1`: the cytotoxicity call in the assay on HSkMC and with HepG2 was “inactive” throughout. For the same compound, the growth inhibition call with S. aureus RN4220 is “inactive”.

Consider `Cc1ccc(S(=O)(=O)N(C)C[C@H]2OCCCC[C@H](C)Oc3ccc(NC(=O)Nc4ccccc4)cc3C(=O)N([C@@H](C)CO)C[C@@H]2C)cc1`, for which the cytotoxicity call in the assay with HSkMC and in the assay with HepG2 was “inactive” in each case. Besides, the growth inhibition call in the assay with S. aureus RN4220 was “inactive”.

`C[C@H]1CN([C@@H](C)CO)C(=O)c2cccc(NS(=O)(=O)c3cn(C)cn3)c2O[C@@H]1CN(C)C(=O)NC1CCCCC1`: the cytotoxicity call with HSkMC and in the assay with HepG2 was “inactive” each time. Further, in the assay on S. aureus RN4220, the growth inhibition call was “inactive”.

For the compound `CON=C1CC2(CC3CC(CC=C(C)CC(C)C=CC=C4COC5C(O)C(C)=CC(C(=O)O3)C45O)O2)OC(C(C)=CC(C)C)C1C` (stereo unspecified), the cytotoxicity call in the assay on HSkMC and with HepG2 was “active” throughout. Moreover, the growth inhibition call in the assay on S. aureus RN4220 was “inactive”.

For the compound `O=C(Nc1ccc2c(c1)[C@H]1C[C@@H](CC(=O)N3CCc4ccccc4C3)O[C@H](CO)[C@H]1O2)C1CCOCC1`, the cytotoxicity call with HSkMC and in the assay on HepG2 was “inactive” each time. In addition, the growth inhibition call with S. aureus RN4220 is “inactive”.

Take `O=C(COC(=O)/C=C/c1cn(-c2ccccc2)nc1-c1ccc2c(c1)OCCO2)N[C@H]1CCS(=O)(=O)C1`: the cytotoxicity call in the assay on HSkMC and in the assay on HepG2 was “inactive” throughout. In addition, the growth inhibition call in the assay on S. aureus RN4220 is “inactive”.

In the case of `Cc1noc(C)c1NC(=O)Nc1ccc2c(c1)C(=O)N([C@@H](C)CO)C[C@H](C)[C@H](CN(C)C(=O)Nc1ccc(F)cc1)OCCCC[C@H](C)O2`, the cytotoxicity call in the assay on HSkMC and with HepG2 was “inactive” throughout. Also, in the assay with S. aureus RN4220, the growth inhibition call is “inactive”.

In the case of `COc1ccc(S(=O)(=O)N(C)C[C@@H]2Oc3c(NC(=O)C4CCOCC4)cccc3C(=O)N([C@H](C)CO)C[C@H]2C)cc1`, the cytotoxicity call in the assay on HSkMC and with HepG2 was “inactive” in each case. Further, in the assay with S. aureus RN4220, the growth inhibition call is “inactive”.

As to `CO[C@H]1CN(C)C(=O)c2cc(NC(=O)Nc3ccc(Cl)cc3)ccc2OC[C@H](C)N(C(=O)Nc2c(C)noc2C)C[C@@H]1C`, the cytotoxicity call in the assay on HSkMC and in the assay on HepG2 was “inactive” in each case. Moreover, the growth inhibition call with S. aureus RN4220 was “inactive”.

Take `C[C@@H]1CCCCO[C@H](CN(C)C(=O)CCC(F)(F)F)[C@@H](C)CN([C@H](C)CO)C(=O)c2cc(NC(=O)c3ccccc3)ccc2O1`: the cytotoxicity call in the assay on HSkMC and in the assay with HepG2 was “inactive” each time. Moreover, the growth inhibition call in the assay on S. aureus RN4220 is “inactive”.

Regarding `C[C@@H]1CN([C@@H](C)CO)C(=O)c2cc(NC(=O)NC3CCCCC3)ccc2O[C@H]1CN(C)S(C)(=O)=O`, the cytotoxicity call with HSkMC and with HepG2 was “inactive” throughout. Besides, in the assay with S. aureus RN4220, the growth inhibition call was “inactive”.

With `C[C@H](CO)N1C[C@H](C)[C@@H](CN(C)S(=O)(=O)c2cccs2)Oc2ccc(NS(C)(=O)=O)cc2C1=O`, the cytotoxicity call with HSkMC and with HepG2 was “inactive” throughout. Also, the growth inhibition call with S. aureus RN4220 is “inactive”.

`CO[C@H]1CN(C)C(=O)c2cc(NS(=O)(=O)c3ccccc3C)ccc2OC[C@H](C)N(S(C)(=O)=O)C[C@H]1C`: the cytotoxicity call with HSkMC and with HepG2 was “inactive” throughout. For the same compound, the growth inhibition call in the assay on S. aureus RN4220 is “inactive”.

With `COc1ccc(S(=O)(=O)N(C)C[C@H]2OCCCC[C@@H](C)Oc3ccc(NS(=O)(=O)c4cn(C)cn4)cc3C(=O)N([C@H](C)CO)C[C@@H]2C)cc1`, the cytotoxicity call in the assay on HSkMC and in the assay with HepG2 was “inactive” throughout. For the same compound, in the assay with S. aureus RN4220, the growth inhibition call was “inactive”.

As for `C[C@@H]1CN([C@H](C)CO)C(=O)c2cccc(NS(=O)(=O)c3ccccc3)c2O[C@H]1CN(C)Cc1ccc(Cl)c(Cl)c1`, the cytotoxicity call in the assay with HSkMC and in the assay on HepG2 was “inactive” throughout. The growth inhibition call in the assay with S. aureus RN4220 is “inactive”.

In the case of `CC(=O)Nc1ccc(S(=O)(=O)CCO)cc1`, the cytotoxicity call in the assay on HSkMC and with HepG2 was “inactive” throughout. In the assay with S. aureus RN4220, the growth inhibition call was “inactive”.

`C[C@H](CO)N1C[C@H](C)[C@@H](CN(C)Cc2ccncc2)OCCCC[C@H](C)Oc2ccc(NC(=O)Nc3ccc4c(c3)OCO4)cc2C1=O`: the cytotoxicity call in the assay with HSkMC and in the assay with HepG2 was “inactive” each time. Also, in the assay on S. aureus RN4220, the growth inhibition call is “inactive”.

As to `[N-]=[N+]=Nc1ccccc1C[C@@]1(C(=O)NC[C@@H](O)CO)N=C(c2ccc(OCCCO)cc2)O[C@@H]1c1ccccc1`, the cytotoxicity call in the assay on HSkMC (human skeletal muscle cells) and in the assay on HepG2 was “inactive” each time. The growth inhibition call in the assay with S. aureus RN4220 is “inactive”.

In the case of `COc1ccc(S(=O)(=O)Nc2ccc3c(c2)C(=O)N([C@@H](C)CO)C[C@@H](C)[C@@H](CN(C)C(=O)NC(C)C)O3)cc1`, the cytotoxicity call in the assay with HSkMC and in the assay with HepG2 was “inactive” in each case. For the same compound, the growth inhibition call with S. aureus RN4220 is “inactive”.
